# Some of the results follow.
# Tests used:
# Assay in all cases: glycan array binding signal (z-score within array); higher = stronger binding
# Conditions in all cases: glycan notation: IUPAC condensed, linker removed
# [1] = molecular target: Fuc(a1-2)[Gal(a1-4)]Gal(b1-4)GlcNAc
# Summary of the method: (§1)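 The binding signal is a Z-score computed within each array and averaged over linkers. Arrays of the same protein sequence at different concentrations or buffers were also averaged together. Data originate from 3228 arrays in the Consortium for Functional Glycomics database, kept only where the protein sequence was available.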
# [2] = molecular target: Fuc(a1-2)[GalNAc(a1-3)]Gal
# Summary of the method: as §1
# [3] = molecular target: Fuc(a1-2)[GalNAc(a1-3)]Gal(b1-3)GalNAc(a1-3)[Fuc(a1-2)]Gal(b1-4)GlcNAc
# Summary of the method: as §1
# [4] = molecular target: Fuc(a1-2)[GalNAc(a1-3)]Gal(b1-3)GalNAc(b1-3)Gal(a1-4)Gal(b1-4)Glc
# Summary of the method: as §1
# [5] = molecular target: Fuc(a1-2)[GalNAc(a1-3)]Gal(b1-3)GlcNAc
# Summary of the method: as §1
# [6] = molecular target: Fuc(a1-2)[GalNAc(a1-3)]Gal(b1-3)GlcNAc(b1-2)Man(a1-3)[Fuc(a1-2)[GalNAc(a1-3)]Gal(b1-3)GlcNAc(b1-2)Man(a1-6)]Man(b1-4)GlcNAc(b1-4)GlcNAc
# Summary of the method: as §1
# [7] = molecular target: Fuc(a1-2)[GalNAc(a1-3)]Gal(b1-3)GlcNAc(b1-2)Man(a1-3)[Fuc(a1-2)[GalNAc(a1-3)]Gal(b1-3)GlcNAc(b1-2)Man(a1-6)]Man(b1-4)GlcNAc(b1-4)[Fuc(a1-6)]GlcNAc
# Summary of the method: as §1
# [8] = molecular target: Fuc(a1-2)[GalNAc(a1-3)]Gal(b1-3)GlcNAc(b1-3)GalNAc
# Summary of the method: as §1
# [9] = molecular target: Fuc(a1-2)[GalNAc(a1-3)]Gal(b1-3)GlcNAc(b1-6)GalNAc
# Summary of the method: as §1
# [10] = molecular target: Fuc(a1-2)[GalNAc(a1-3)]Gal(b1-4)Glc
# Summary of the method: as §1
# [11] = molecular target: Fuc(a1-2)[GalNAc(a1-3)]Gal(b1-4)GlcNAc
# Summary of the method: as §1
# [12] = molecular target: Fuc(a1-2)[GalNAc(a1-3)]Gal(b1-4)GlcNAc(b1-2)Man
# Summary of the method: as §1
# [13] = molecular target: Fuc(a1-2)[GalNAc(a1-3)]Gal(b1-4)GlcNAc(b1-2)Man(a1-3)[Fuc(a1-2)[GalNAc(a1-3)]Gal(b1-4)GlcNAc(b1-2)Man(a1-6)]Man(b1-4)GlcNAc(b1-4)GlcNAc
# Summary of the method: as §1
# [14] = molecular target: Fuc(a1-2)[GalNAc(a1-3)]Gal(b1-4)GlcNAc(b1-2)Man(a1-3)[Fuc(a1-2)[GalNAc(a1-3)]Gal(b1-4)GlcNAc(b1-2)Man(a1-6)]Man(b1-4)GlcNAc(b1-4)[Fuc(a1-6)]GlcNAc
# Summary of the method: as §1
# [15] = molecular target: Fuc(a1-2)[GalNAc(a1-3)]Gal(b1-4)GlcNAc(b1-3)Gal(b1-4)GlcNAc
# Summary of the method: as §1
# [16] = molecular target: Fuc(a1-2)[GalNAc(a1-3)]Gal(b1-4)GlcNAc(b1-3)Gal(b1-4)GlcNAc(b1-3)Gal(b1-4)GlcNAc
# Summary of the method: as §1
# [17] = molecular target: Fuc(a1-2)[GalNAc(a1-3)]Gal(b1-4)GlcNAc(b1-3)GalNAc
# Summary of the method: as §1
# [18] = molecular target: Fuc(a1-2)[GalNAc(a1-3)]Gal(b1-4)GlcNAc(b1-3)[Fuc(a1-2)[GalNAc(a1-3)]Gal(b1-4)GlcNAc(b1-6)]GalNAc
# Summary of the method: as §1
# [19] = molecular target: Fuc(a1-2)[GalNAc(a1-3)]Gal(b1-4)GlcNAc(b1-6)GalNAc
# Summary of the method: as §1
# [20] = molecular target: Fuc(a1-2)[GalNAc(a1-3)]Gal(b1-4)[Fuc(a1-3)]GlcNAc
# Summary of the method: as §1
# [21] = molecular target: Fuc(a1-2)[GalNAc(a1-3)]Gal(b1-4)[Fuc(a1-3)]GlcNAc(b1-3)GalNAc
# Summary of the method: as §1
# [22] = molecular target: Fuc(a1-2)[GalNAc(a1-4)]Gal(b1-4)GlcNAc
# Summary of the method: as §1
# [23] = molecular target: Fuc(a1-2)[GalNAc(b1-3)]Gal
# Summary of the method: as §1
binder,measurement,setting,value
rEtpA (Escherichia coli) (protein) MNRIYKLKFDKRRNELVVVSEITTGVGNAKATGSVEGEKSPRRGVRAMALSLLSGMMIMAHPAMSANLPTGGQIVAGSGSIQTPSGNQMNIHQNSQNMVANWNSFDIGKGNTVQFDQPSSSAVALNRVVGGGESQIMGNLKANGQVFLVNPNGVLFGEGASVSTSGFVASTRDIKNDDFMNRRYTFSGGQKAGAAIVNQGELTTNAGGYIVLAADRVSNSGTIRTPGGKTVLAASERITLQLDNGGLMSVQVTGDVVNALVENRGLVSARDGQVYLTALGRGMLMNTVLNVSGVVEASGMHRQDGNIVLDGGDSGVVHLSGTLQADNASGQGGKVVVQGKNILLDKGSNITATGGQGGGEVYVGGGWQGKDSNIRNADKVVMQGGARIDVSATQQGNGGTAVLWSDSYTNFHGQISAKGGETGGNGGRVETSSHGNLQAFGTVSASAKKGKAGNWLLDSADITIVNGSNVSKTETTQSPPHTQFAPTAAGSAVSNTSINNRLNNGTSVTILTHRTRTGTAQGGNITVNAAINKSNGSDVNLTLQAGGNITVNNSITSTEGKLNVNLSGARTSNGSITISNNANITTNGGDITVGTTNTSNRVNISINNTTLNASNGNIQLTGTGTDSGILFAGNNRLTASNIALTGNSTSGNAINLTGTATLNATNNITLTGSSTSGNAINLKGNNTLTASNITLTGESTSGNAINLTDTTGTTTLNATNNITMQGTRVQIKHSNITAGNFALNATVAGSEISNTTLTATNNINLAAKTNSASSGVYLKDARITSTNGSITANGTATANGKATHLDGNVTLNASNGRIKLTGNGHGSASGILFAGNNRLTASNIALTGNSTSGNAINLTGTATLNATNDITLTGSSTSGNAINLTGTATLNATNNITLTGSSTSGNAINLKGNNTLTASNITLTGESTSGNAINLTDTTGTTTLNATNNITMQGTRVQIKHSNITAGNFALNATVAGSEISNTTLTATNNINLAAKTNSASSGVYLKDARITSTNGSITANGTATANGKATHLDGNVTLNASNGRIKLTGNGHGSASGILFAGNNRLTASNIALTGNSTSGNAINLTGTATLNATNDITLTGSSTSGNAINLTGTATLNATNNITLTGSSTSGNAINLKGNNTLTASNITLTGESTSGNAINLTDTTGTTTLNATNNITMQGTRVQIKHSNITAGNFALNATVAGSEISNTTLTATNNINLAAKTNSASSGVYLKDARITSTNGSITANGTATANGKATHLDGNVTLNASNGRIKLTGNGHGSASGILFAGNNRLTASNIALTGNSTSGNAINLTGTATLNATNDITLTGSSTSGNAINLTGTATLNATNNITLTGSSTSGNAINLKGNNTLTASNITLTGESTSGNAINLTDTTGTTTLNATNNITMQGTRVQIKHSNITAGNFALNATVAGSEISNTTLTATNNINLAAKTNSASSGVYLKDARITSTNGSITTNGTATANGKATHLDGNVTLNASNGRIKLTGNGHGSASGILFAGNNRLTASNIALTGNSTSGNAINLTGTATLNATNDITLTGSSTSGNAINLTGTATLNATNNITLTGSSTSGNAINLKGNNTLTASNITLTGESTSGNAINLTDTTGTTTLNATNNITMQGTRVQIKHSNITAGNFALNATVAGSEISNTTLTATNNINLAAKTNSASSGVYLKDARITSTNGSITANGTAPANDNATYLDGNVTLNASNGSIKLTGNGNGSTSGILFAGNNTLTASNITLTGNSEVYWQKLGPEQKLISEEDLNSAVDHHHHHH,glycan array binding signal (z-score),[1],-0.09
same,glycan array binding signal (z-score),[2],-0.251
same,glycan array binding signal (z-score),[3],-0.22
same,glycan array binding signal (z-score),[4],-0.343
same,glycan array binding signal (z-score),[5],0.443
same,glycan array binding signal (z-score),[6],-0.328
same,glycan array binding signal (z-score),[7],0.54
same,glycan array binding signal (z-score),[8],-0.111
same,glycan array binding signal (z-score),[9],-0.423
same,glycan array binding signal (z-score),[10],-0.322
same,glycan array binding signal (z-score),[11],-0.293
same,glycan array binding signal (z-score),[12],-0.372
same,glycan array binding signal (z-score),[13],-0.09
same,glycan array binding signal (z-score),[14],0.307
same,glycan array binding signal (z-score),[15],-0.272
same,glycan array binding signal (z-score),[16],-0.371
same,glycan array binding signal (z-score),[17],-0.402
same,glycan array binding signal (z-score),[18],-0.189
same,glycan array binding signal (z-score),[19],-0.369
same,glycan array binding signal (z-score),[20],0.011
same,glycan array binding signal (z-score),[21],0.418
same,glycan array binding signal (z-score),[22],-0.194
same,glycan array binding signal (z-score),[23],-0.125

# Source: the supplement of paper PMC8728848
